Laboratory results from PubChem BioAssay AID1963850 (Molecular Pharmacology Branch, DTP, NCI, 2024).
For part of its entries the source gives two or more results. The other results are left out here. The source may hold further records. Values given together are repeated measurements across runs, samples, wells, individuals or studies. A date in brackets names the month of the test.

Tested on: 192522-019-R-J2-PDC complex tumor spheroid viability
Assay: Anticancer human tumor 192522-019-R-J2-PDC patient-derived colon adenocarcinoma cell line growth inhibition [POLQ]
Conditions: stronger effect = lower value
Experimental: Multicellular complex tumor spheroid response to Polymerase (POL) inhibitors (novobiocin, ART-558, RP6685) in combination with a variety of drugs and investigational agents in selected tumor cell lines
The POL inhibitors (novobiocin, ART-558, and RP6685) were evaluated both individually and in combination with standard of care and investigational anticancer small molecules within a complex spheroid model of solid tumors. . Complex spheroids include a stromal component modeled by human endothelial cells (HUVEC) and fibroblasts modeled by human mesenchymal stem cells (MSCs). The concentration ranges selected for each drug and investigational agent were based upon clinically achievable concentrations if the clinical Cmax of the agent was known.
Compounds. The drugs and investigational agents: novobiocin (NSC847541), ART-558 (NSC835418), RP-6685 (NSC848927), peposertib (NSC802822), ceralasertib (NSC780249), elimusertib (NSC800525), camonsertib (NSC841442), AZD-1390 (NSC803789), olaparib (NSC753686), talazoparib (NSC767125), rucaparib (NSC756644), sotorasib (NSC818433), MRTX-1133 (NSC836407), SN-38 (NSC673596), topotecan (NSC609699), epotoside (NSC141540), doxorubicin (NSC123127), gemcitabine (NSC613327), 5-fluorouracil (NSC19893), paclitaxel (NSC125973), vemurafenib (NSC761431), MSA-2 (NSC828583), SN-011 (NSC837082), adavosertib (NSC754352), prexasertib (NSC758257), carboplatin (NSC241240) and oxaliplatin (NSC266046), were obtained from the National Cancer Institute (NCI) Developmental Therapeutics Program Chemical Repository (21). The FDA-approved anticancer drug set is available from the Developmental Therapeutics Program at https://dtp.cancer.gov/organization/dscb/obtaining/. […] If the clinical Cmax for an agent had not been determined, the highest concentration tested was 10 microM, except for SN-38, which was tested at a high concentration of 1 microM. […]
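Also: spheroids exposed to drugs for seven days before reading; 100% = DMSO vehicle control viability in luminescence.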

SMILES | viability, T/C (compound alone 0.316 µM) | viability, T/C (compound alone 0.01 µM)
COc1cc(C2c3cc4c(cc3C(OC3OC5COC(C)OC5C(O)C3O)C3COC(=O)C23)OCO4)cc(OC)c1O (stereo not drawn) | 90%, 98.4% [2023-10] and 117% [2023-11] | –
CCc1c2c(nc3ccc(O)cc13)-c1cc3c(c(=O)n1C2)COC(=O)[C@]3(O)CC | – | 51.5%, 64.6% [2023-10] and 78.7% [2023-11]
COc1cccc(OCCCN)c1-c1cc(Nc2cnc(C#N)cn2)n[nH]1 | – | 60% [2023-10] and 86.9%, 82% [2023-11]
